Consider 28 molecules from the supplement of paper PMC10037445.

The test system of assay [1] is RAW-Dual. Nature of the assay: IRF Lucia reporter activity, fold change vs agonist alone; cytotoxicity flag (confluency mask): not cytotoxic; higher = enhanced IRF activity. A digest of the protocol: (§1)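 Reporter activity is given as fold change relative to agonist-alone wells. To measure it, 50 nL of library stock was pin-tooled onto RAW-Dual macrophages (50,000 cells/well, DMEM, 384-well plates), a PRR agonist followed 1 h later, and cells stayed at 37 °C, 5% CO2. Twenty hours on, supernatant was assayed for IRF (QuantiLuc luminescence) and NF-κB (QuantiBlue, 620 nm absorbance), and wells under 70% of agonist-control IncuCyte confluency in both mask sets were marked cytotoxic.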

Assay [2] concerns RAW-Dual. Kind of assay: IRF Lucia reporter activity, fold change vs agonist alone; higher = enhanced IRF activity. The note with it: agonist: MPLA (TLR4) […]. A digest of the protocol:
as §1

Assay [3] relates to RAW-Dual. Nature of the assay: IRF Lucia reporter activity, fold change vs agonist alone; cytotoxicity flag (confluency mask): cytotoxic (confluency <70% of control); higher = enhanced IRF activity. A digest of the protocol: as §1
The mark [4] stands for this setting: agonist: 3'3'-cGAMP (STING) 10 ug/mL.
The mark [5] stands for this setting: library stock concentration (final ~1000-fold dilution): 10 mM, cytotoxicity flag (confluency mask): cytotoxic (confluency <70% of control).
[6] abbreviates: library stock concentration (final ~1000-fold dilution): 10 mM, cytotoxicity flag (confluency mask): not cytotoxic.

Structures are written as SMILES. In all, about 2,900 compounds were measured (“IRF Lucia reporter activity, fold change vs agonist alone”: median about 0.9, highest 2% from about 2.8 on). This is one part of the list.

For the molecule `O=C(/C=C/c1ccc(O)c(O)c1)c1ccc(O)cc1O` (library stock concentration (final ~1000-fold dilution): 10 mM), the “IRF Lucia reporter activity” value is 0.0216 in assay [1] (setting [4]) and 0.117 in assay [1] (agonist: LPS (TLR4) 0.1 ug/mL).

Consider `O=C(CCCCCCC(=O)Nc1ccccc1)NO`, for which the “IRF Lucia reporter activity” value in assay [2] (setting [5]) turned out to be 0.364.

As to `O=C(CCCCCCC(=O)Nc1ccccc1)NO` (library stock concentration (final ~1000-fold dilution): 10 mM), the “IRF Lucia reporter activity” value in assay [3] (setting [4]) was found to be 0.0902; in assay [3] (agonist: LPS (TLR4) 0.1 ug/mL) it was 0.52.

On to `CCC1OC(=O)C(C)C(OC2CC(C)(OC)C(O)C(C)O2)C(C)C(OC2OC(C)CC(N(C)C)C2O)C(C)(O)CC(C)CN(C)C(C)C(O)C1(C)O.O.O` (stereo not given), for which the “IRF Lucia reporter activity” value in assay [2] (setting [6]) was 1.19.

In the case of `CCC1OC(=O)C(C)C(OC2CC(C)(OC)C(O)C(C)O2)C(C)C(OC2OC(C)CC(N(C)C)C2O)C(C)(O)CC(C)CN(C)C(C)C(O)C1(C)O.O.O` (stereo not given) (library stock concentration (final ~1000-fold dilution): 10 mM), the “IRF Lucia reporter activity” value stood at 0.207 in assay [1] (setting [4]) and 1.31 in assay [1] (agonist: LPS (TLR4) 0.1 ug/mL).

As to `CN1C(=O)NC(Cc2c[nH]c3c(Cl)cccc23)C1=O` (stereo not given) (library stock concentration (final ~1000-fold dilution): 10 mM), the “IRF Lucia reporter activity” value turned out to be 0.896 in assay [1] (setting [4]) and 0.697 in assay [1] (agonist: LPS (TLR4) 0.1 ug/mL).

As for `Cc1cc(C(=O)NC(C)(C)C)cc(C#Cc2ccc3c4c(oc3c2)C(C)(C)c2cc(NS(C)(=O)=O)ccc2C4=O)n1` (library stock concentration (final ~1000-fold dilution): 10 mM), the entries for the “IRF Lucia reporter activity” value in assay [1] (setting [4]) and in assay [1] (agonist: LPS (TLR4) 0.1 ug/mL) were 0.196 and 0.504, respectively.

Regarding `CC(=O)OC(CC=C(C)C)C1=CC(=O)c2c(O)ccc(O)c2C1=O` (stereo not given) (library stock concentration (final ~1000-fold dilution): 2 mM), the “IRF Lucia reporter activity” value in assay [1] (setting [4]) was determined as 0.0252; in assay [1] (agonist: LPS (TLR4) 0.1 ug/mL) it was 0.288.

Regarding `C[N+](C)(C)NCCC(=O)O` (library stock concentration (final ~1000-fold dilution): 10 mM water), the entries for the “IRF Lucia reporter activity” value in assay [1] (setting [4]) and in assay [1] (agonist: LPS (TLR4) 0.1 ug/mL) were 1.05 and 0.979, respectively.

On to `C[N+](C)(C)NCCC(=O)O`, for which the “IRF Lucia reporter activity” value in assay [2] (library stock concentration (final ~1000-fold dilution): 10 mM water, cytotoxicity flag (confluency mask): not cytotoxic) came out at 1.25.

Consider `CCOc1ccccc1OC(c1ccccc1)C1CNCCO1.CS(=O)(=O)O` (stereo not given), for which the “IRF Lucia reporter activity” value in assay [2] (setting [6]) stood at 0.611.

On to `CCOc1ccccc1OC(c1ccccc1)C1CNCCO1.CS(=O)(=O)O` (stereo not given) (library stock concentration (final ~1000-fold dilution): 10 mM), for which the “IRF Lucia reporter activity” value in assay [1] (setting [4]) was 1.03; in assay [1] (agonist: LPS (TLR4) 0.1 ug/mL), 0.984.

Consider `CCOC(=O)C1=CC(OC(CC)CC)C(NC(C)=O)C(N)C1` (stereo not given), for which the “IRF Lucia reporter activity” value in assay [2] (library stock concentration (final ~1000-fold dilution): 2 mM, cytotoxicity flag (confluency mask): not cytotoxic) came out at 1.32.

Regarding `CCOC(=O)C1=CC(OC(CC)CC)C(NC(C)=O)C(N)C1` (stereo not given) (library stock concentration (final ~1000-fold dilution): 2 mM), the figures for the “IRF Lucia reporter activity” value in assay [1] (setting [4]) and in assay [1] (agonist: LPS (TLR4) 0.1 ug/mL) were 0.98 and 1.07, respectively.

For `CC(c1ncncc1F)C(O)(Cn1cncn1)c1ccc(F)cc1F` (stereo not given), the “IRF Lucia reporter activity” value in assay [2] (setting [6]) worked out at 0.639.

Regarding `CC(c1ncncc1F)C(O)(Cn1cncn1)c1ccc(F)cc1F` (stereo not given) (library stock concentration (final ~1000-fold dilution): 10 mM), the “IRF Lucia reporter activity” value in assay [1] (setting [4]) came to 1.11; in assay [1] (agonist: LPS (TLR4) 0.1 ug/mL) it was 0.893.

As for `O=C(O)c1ccc2c(c1)nc(Nc1cccc(Cl)c1)c1ccncc12` (library stock concentration (final ~1000-fold dilution): 10 mM), the “IRF Lucia reporter activity” value was found to be 0.908 in assay [1] (setting [4]) and 0.197 in assay [1] (agonist: LPS (TLR4) 0.1 ug/mL).

Consider `O=C(O)c1ccc2c(c1)nc(Nc1cccc(Cl)c1)c1ccncc12`, for which the “IRF Lucia reporter activity” value in assay [2] (setting [6]) turned out to be 0.637.

With `O=C1CC(=O)c2c(Cl)c(Cl)c(Cl)c(Cl)c21`, in assay [2] (setting [6]), the “IRF Lucia reporter activity” value came out at 0.918.

In the case of `O=C1CC(=O)c2c(Cl)c(Cl)c(Cl)c(Cl)c21` (library stock concentration (final ~1000-fold dilution): 10 mM), the “IRF Lucia reporter activity” value in assay [1] (setting [4]) is 0.849; in assay [1] (agonist: LPS (TLR4) 0.1 ug/mL), 0.863.

On to `CNC(=O)c1nn(C)c2c1C(C)(C)Cc1cnc(Nc3ccc(N4CCN(C)CC4)cc3)nc1-2` (library stock concentration (final ~1000-fold dilution): 10 mM), for which the “IRF Lucia reporter activity” value was 0.123 in assay [3] (setting [4]) and 0.0126 in assay [3] (agonist: LPS (TLR4) 0.1 ug/mL).

As for `CNC(=O)c1nn(C)c2c1C(C)(C)Cc1cnc(Nc3ccc(N4CCN(C)CC4)cc3)nc1-2`, the “IRF Lucia reporter activity” value in assay [2] (setting [5]) worked out at 0.165.

In the case of `Cc1ccc(/C=N/NC(=O)c2ccccc2Oc2ccccc2)o1` (library stock concentration (final ~1000-fold dilution): 10 mM), the “IRF Lucia reporter activity” value in assay [1] (setting [4]) came to 1.16; in assay [1] (agonist: LPS (TLR4) 0.1 ug/mL), 1.03.

On to `CC(C)(C)OC(=O)NC1CCCCC/C=C\C2CC2(C(=O)NS(=O)(=O)C2CC2)NC(=O)C2CC(OC(=O)N3Cc4cccc(F)c4C3)CN2C1=O` (stereo not given) (library stock concentration (final ~1000-fold dilution): 10 mM), for which the “IRF Lucia reporter activity” value in assay [1] (setting [4]) came out at 0.932; in assay [1] (agonist: LPS (TLR4) 0.1 ug/mL) it was 1.13.

In the case of `CC(C)(C)OC(=O)NC1CCCCC/C=C\C2CC2(C(=O)NS(=O)(=O)C2CC2)NC(=O)C2CC(OC(=O)N3Cc4cccc(F)c4C3)CN2C1=O` (stereo not given), in assay [2] (setting [6]), the “IRF Lucia reporter activity” value is 1.04.

Turning to `CC1CNC(=O)c2cnn3ccc(nc23)NC(C)c2cc(F)ccc2O1` (stereo not given) (library stock concentration (final ~1000-fold dilution): 10 mM), the figures for the “IRF Lucia reporter activity” value in assay [1] (setting [4]) and in assay [1] (agonist: LPS (TLR4) 0.1 ug/mL) were 0.187 and 0.804, respectively.

Take `CNc1nc(-c2ccc3c(N)n[nH]c3c2)cc(N2CC(C(=O)NC3CCCCC3)CCC2C)n1` (stereo not given): the “IRF Lucia reporter activity” value in assay [2] (setting [6]) came out at 1.03.

As for `CNc1nc(-c2ccc3c(N)n[nH]c3c2)cc(N2CC(C(=O)NC3CCCCC3)CCC2C)n1` (stereo not given) (library stock concentration (final ~1000-fold dilution): 10 mM), the “IRF Lucia reporter activity” value was 0.0916 in assay [1] (setting [4]) and 0.976 in assay [1] (agonist: LPS (TLR4) 0.1 ug/mL).
